Binding data for 5 molecules are collected here from article PMC8664900.

To fix the notation:
T1: 2xProteinA-Atg11^1–454 (S. cerevisiae) (UniProt Q12527)
T1 sequence: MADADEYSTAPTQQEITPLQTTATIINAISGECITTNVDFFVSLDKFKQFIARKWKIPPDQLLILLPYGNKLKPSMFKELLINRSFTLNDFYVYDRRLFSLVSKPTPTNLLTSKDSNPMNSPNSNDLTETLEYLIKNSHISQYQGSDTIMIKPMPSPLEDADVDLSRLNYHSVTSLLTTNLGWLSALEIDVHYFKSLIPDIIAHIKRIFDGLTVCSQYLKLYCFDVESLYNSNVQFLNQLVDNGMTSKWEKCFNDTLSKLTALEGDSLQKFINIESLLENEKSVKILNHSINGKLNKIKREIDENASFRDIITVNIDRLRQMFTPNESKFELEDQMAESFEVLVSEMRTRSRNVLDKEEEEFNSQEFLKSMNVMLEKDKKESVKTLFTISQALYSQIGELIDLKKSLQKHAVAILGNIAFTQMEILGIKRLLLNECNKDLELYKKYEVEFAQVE

T2: 2xProteinA-Atg11^FL (S. cerevisiae) (UniProt Q12527)
T2 sequence: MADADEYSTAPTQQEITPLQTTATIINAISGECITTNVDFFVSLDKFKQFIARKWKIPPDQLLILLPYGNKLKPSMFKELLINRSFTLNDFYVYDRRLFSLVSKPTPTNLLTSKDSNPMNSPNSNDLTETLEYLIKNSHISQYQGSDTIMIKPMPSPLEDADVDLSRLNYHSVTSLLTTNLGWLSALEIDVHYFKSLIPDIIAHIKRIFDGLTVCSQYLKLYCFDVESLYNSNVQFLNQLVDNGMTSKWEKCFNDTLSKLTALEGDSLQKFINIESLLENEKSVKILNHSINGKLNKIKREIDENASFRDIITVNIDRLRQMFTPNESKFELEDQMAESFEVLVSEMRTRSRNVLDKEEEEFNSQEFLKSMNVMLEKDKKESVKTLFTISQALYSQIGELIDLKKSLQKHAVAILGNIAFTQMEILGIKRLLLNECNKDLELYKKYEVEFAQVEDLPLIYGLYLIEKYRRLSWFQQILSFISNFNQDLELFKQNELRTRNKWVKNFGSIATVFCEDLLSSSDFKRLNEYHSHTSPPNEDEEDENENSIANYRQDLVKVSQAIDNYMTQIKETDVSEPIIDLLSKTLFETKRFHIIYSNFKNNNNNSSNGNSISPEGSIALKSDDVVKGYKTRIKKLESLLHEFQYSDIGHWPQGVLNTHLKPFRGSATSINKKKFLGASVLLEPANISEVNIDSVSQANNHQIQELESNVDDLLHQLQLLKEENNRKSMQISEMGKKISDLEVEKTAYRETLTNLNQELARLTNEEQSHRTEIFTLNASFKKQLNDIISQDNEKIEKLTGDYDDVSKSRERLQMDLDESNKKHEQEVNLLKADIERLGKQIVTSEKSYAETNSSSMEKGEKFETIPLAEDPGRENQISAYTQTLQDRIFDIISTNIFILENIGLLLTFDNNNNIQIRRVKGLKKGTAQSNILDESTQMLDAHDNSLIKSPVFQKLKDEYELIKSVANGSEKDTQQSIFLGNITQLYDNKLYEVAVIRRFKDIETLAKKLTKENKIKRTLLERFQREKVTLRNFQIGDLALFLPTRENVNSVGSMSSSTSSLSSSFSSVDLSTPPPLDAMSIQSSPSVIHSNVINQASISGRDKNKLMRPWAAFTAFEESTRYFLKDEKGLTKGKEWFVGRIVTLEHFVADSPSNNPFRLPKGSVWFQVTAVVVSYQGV

T3: Vac8-GFP (S. cerevisiae) (UniProt P39968)
T3 sequence: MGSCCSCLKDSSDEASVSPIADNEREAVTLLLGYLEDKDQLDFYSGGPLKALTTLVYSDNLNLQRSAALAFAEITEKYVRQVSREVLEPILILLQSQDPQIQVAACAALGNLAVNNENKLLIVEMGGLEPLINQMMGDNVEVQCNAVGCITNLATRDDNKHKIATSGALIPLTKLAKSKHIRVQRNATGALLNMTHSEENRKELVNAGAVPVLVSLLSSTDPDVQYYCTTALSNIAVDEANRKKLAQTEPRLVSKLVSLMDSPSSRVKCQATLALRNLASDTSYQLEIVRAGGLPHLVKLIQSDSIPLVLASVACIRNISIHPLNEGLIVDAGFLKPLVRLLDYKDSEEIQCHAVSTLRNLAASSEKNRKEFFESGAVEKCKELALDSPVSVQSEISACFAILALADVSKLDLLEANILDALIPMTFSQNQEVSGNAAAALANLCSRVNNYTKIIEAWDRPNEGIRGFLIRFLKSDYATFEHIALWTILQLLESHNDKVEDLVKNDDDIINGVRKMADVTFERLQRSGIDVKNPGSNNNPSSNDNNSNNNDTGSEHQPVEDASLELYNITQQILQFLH

B1: Atg19 (protein, UniProt P35193 1-415)
chain: MNNSKTNQQMNTSMGYPLTVYDECNKFQLIVPTLDANIMLWCIGQLSLLNDSNGCKHLFWQPNDKSNVRILLNNYDYGHLFKYLQCQRKCSVYIGEGTLKKYNLTISTSFDNFLDLTPSEEKESLCREDAHEDPVSPKAGSEEEISPNSTSNVVVSRECLDNFMKQLLKLEESLNKLELEQKVTNKEPNHRISGTIDIPEDRSELVNFFTELKTVKQLEDVFQRYHDYERLSQECDSKTEIASDHSKKETKIEVEPPNERSLQITMNQRDNSLYFQLFNNTNSVLAGNCKLKFTDAGDKPTTQIIDMGPHEIGIKEYKEYRYFPYALDLEAGSTIEIENQYGEVIFLGKYGSSPMINLRPPSRLSAESLQASQEPFYSFQIDTLPELDDSSIISTSISLSYDGDDNEKALTWEEL
B2: Atg9 (protein, UniProt Q12142 1-997)
chain: MERDEYQLPNSHGKNTFLSRIFGLQSDEVNPSLNSQEMSNFPLPDIERGSSLLHSTNDSREDVDENDLRVPESDQGTSTEEEDEVDEEQVQAYAPQISDGLDGDHQLNSVTSKENVLETEKSNLERLVEGSTDDSVPKVGQLSSEEEEDNEFINNDGFDDDTPLFQKSKIHEFSSKKSNTIEDGKRPLFFRHILQNNRPQRDTQKLFTSSNAIHHDKDKSANNGPRNINGNQKHGTKYFGSATQPRFTGSPLNNTNRFTKLFPLRKPNLLSNISVLNNTPEDRINTLSVKERALWKWANVENLDIFLQDVYNYYLGNGFYCIILEKILNICTLLFVVFVSTYMGHCVDYSKLPTSHRVSDIIIDKCYSNSITGFTKFFLWMFYFFVILKIVQLYFDVQKLSELQNFYKYLLNISDDELQTLPWQNVIQQLMYLKDQNAMTANVVEVKAKNRIDAHDVANRIMRRENYLIALYNSDILNLSLPIPLFRTNVLTKTLEWNINLCVMGFVFNESGFIKQSILKPSQREFTREELQKRFMLAGFLNIILAPFLVTYFVLLYFFRYFNEYKTSPGSIGARQYTPIAEWKFREYNELYHIFKKRISLSTTLANKYVDQFPKEKTNLFLKFVSFICGSFVAILAFLTVFDPENFLNFEITSDRSVIFYITILGAIWSVSRNTITQEYHVFDPEETLKELYEYTHYLPKEWEGRYHKEEIKLEFCKLYNLRIVILLRELTSLMITPFVLWFSLPSSAGRIVDFFRENSEYVDGLGYVCKYAMFNMKNIDGEDTHSMDEDSLTKKIAVNGSHTLNSKRRSKFTAEDHSDKDLANNKMLQSYVYFMDDYSNSENLTGKYQLPAKKGYPNNEGDSFLNNKYSWRKQFQPGQKPELFRIGKHALGPGHNISPAIYSTRNPGKNWDNNNNGDDIKNGTNNATAKNDDNNGNNDHEYVLTESFLDSGAFPNHDVIDHNKMLNSNYNGNGILNKGGVLGLVKEYYKKSDVGR
B3: Atg29 (protein, UniProt Q12092 1-213)
chain: MIMNSTNTVVYIKVKGRRPQGFLDPPKFEWNGTKERQLWTMVSNLNYSQDQIDWQNLSKIFETPEFFLKKRTYKLFAEHLELLQLQLEKKRDLEKYSNDQVNEGMSDLIHKYTPTLQNDNLLNVSASPLTTERQDSEEVETEVTNEALQHLQTSKILNIHKKTSDSENKPNDKLDKDGINKEMECGSSDDDLSSSLSVSKSALEEALMDRLQF
B4: Atg17 (protein, UniProt Q06410 1-417)
chain: MNEADVTKFVNNARKTLTDAQLLCSSANLRIVDIKKKLSSWQLSISKLNFLIVGLRQQGKFLYTILKEGIGTKLIQKQWNQAVLVVLVDEMKYWQYEITSKVQRLDGIVNELSISEKDDTDPSKLGDYISRDNVNLLNDKLKEVPVIERQIENIKLQYENMVRKVNKELIDTKLTDVTQKFQSKFGIDNLMETNVAEQFSRELTDLEKDLAEIMNSLTQHFDKTLLLQDKKIDNDEREELFKVVQGDDKELYNIFKTLHEVIDDVDKTILNLGQFLQAKIKEKTELHSEVSEIINDFNRNLEYLLIFKDISNLIDSFKNSCTQDIQTTKELCEFYDNFEESYGNLVLEAKRRKDVANRMKTILKDCEKQLQNLDAQDQEERQNFIAENGTYLPETIWPGKIDDFSSLYTLNYNVKNP
B5: 2xProteinA-Atg11^FL (protein, UniProt Q12527 1-1178)
chain: T2 sequence

Results are given in words; binding and its absence hold for the method and conditions named. Binding seen in cells or lysates may run through a third protein. Some entries that bind do so weakly or less than the wild type. For part of these data: Sequences can lack the tags named with a protein.

For one experiment, the target named is T1, 2xProteinA-Atg11^1–454 (S. cerevisiae). The experiment can be described thus: co-IP; protein A immunoprecipitation with IgG-coupled Dynabeads M-270 Epoxy from freezer-milled yeast extract; RLB+ buffer, 1 h at 4 °C; western blot.
B1: the binding entry is given as “no binding”. The same measure, in the same setting: as for B2, the entry is “no binding”; as for B3, “no binding”.

Regarding B4, the binding entry is reported as “no binding”.

The next experiment has as its target T2, 2xProteinA-Atg11^FL (S. cerevisiae). The description is as above.
Take B1: the binding result was “binds”. On the same count and under the same terms, as for B2, the entry is “binds”.

Consider B3, for which the binding result is “binds”. The same measure, in the same setting: as for B4, the entry is “binds”.

The next experiment concerns the target T3, Vac8-GFP (S. cerevisiae). The experiment can be described thus: co-IP; GFP immunoprecipitation with magnetic GFP-Trap beads from yeast extracts made by glass bead lysis; RLB+ buffer (1x PBS pH 7.4, 10% glycerol, 0.5% Tween-20), 1 h at 4 °C; western blot with anti-GFP and anti-protein A; also in cells lacking Atg13 (Vac8-Atg11) and in vac8∆ cells (Vps15/Vps34-Atg14). (Immunoblotting shows a protein as a band on a membrane.)
Turning to B5, the binding result was “binds”.
